Reference: publication PMC9645710, “Cryo-EM structures of peripherin-2 and ROM1 suggest multiple roles in photoreceptor membrane morphogenesis” (Science Advances, 2022)

Target: the molecule itself
Assay: SEC; PRPH2 and ROM1 (wild type or cysteine mutants) expressed in HEK293T, solubilized in DDM/CHS; Superdex 200 Increase 10/300 GL, 25 mM tris-HCl, 150 mM NaCl, pH 7.5, 0.025% DDM/CHS; no reducing agent

B1: ROM1 C153S (human) (natural protein)
chain: not shown
notes: rod outer segment membrane protein 1 (ROM1), human, full length, mutant made by site-directed mutagenesis; source: HEK293T, transiently transfected, solubilized in DDM/CHS
With B1 the “stoichiometry N” value was 2.
